According to the supplement of paper PMC4604168 (melanoma cell lines):
This is one part of the list. Single values are uncertain, as repeats are few or missing.

What was measured:
Assay in all cases: cell count relative to DMSO control; melanoma cells; higher = more viable cells
Details in all cases: library dose: standard library concentration; 72 h
SkMel28 = test system: SkMel28
SkMel2 = test system: SkMel2
SkMel30 = test system: SkMel30
SkMel5 = test system: SkMel5
UACC257 = test system: UACC257
UACC62 = test system: UACC62
WM115 = test system: WM115
WM1716 = test system: WM1716
WM3526 = test system: WM3526
WM1745 = test system: WM1745
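Further: cells treated in 1,536-well plates, then fixed and DAPI-stained, with nuclei counted from automated high-throughput microscope images.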

SMILES | cell count (SkMel28) | cell count (SkMel2) | cell count (SkMel30) | cell count (SkMel5) | cell count (UACC257) | cell count (UACC62) | cell count (WM115) | cell count (WM1716) | cell count (WM3526) | cell count (WM1745)
O=C(/C=C/c1cccnc1)NCCCCC1CCN(C(=O)c2ccccc2)CC1 + O=C(O)C(=O)Nc1sc2c(c1C(=O)O)CCNC2 [TCS401] (first compound 0.05 µM, partner dose 8.33333 µM) | 74.3% | 60.5% | 135% | 96.6% | 85% | 79.6% | 83% | 74% | 87.4% | 
CC1(C)CCC(c2ccc(Cl)cc2)=C(CN2CCN(c3ccc(C(=O)NS(=O)(=O)c4ccc(N[C@H](CCN5CCOCC5)CSc5ccccc5)c(S(=O)(=O)C(F)(F)F)c4)cc3)CC2)C1 + CO[C@H]1C[C@@H]2CC[C@@H](C)[C@@](O)(O2)C(=O)C(=O)N2CCCC[C@H]2C(=O)O[C@H]([C@H](C)C[C@@H]2CC[C@@H](OCCO)[C@H](OC)C2)CC(=O)[C@H](C)/C=C(\C)[C@@H](O)[C@@H](OC)C(=O)[C@H](C)C[C@H](C)/C=C/C=C/C=C/1C [everolimus] (first compound 2 µM, partner dose 0.1 µM) | 34.6% | 49.8% | 57.4% | 45.2% | 44.1% | 59.5% | 36.3% | 47.2% | 61.9% | 10.6%
Cc1ccc(Nc2nccc(N(C)c3ccc4c(C)n(C)nc4c3)n2)cc1S(N)(=O)=O [Pazopanib] + O=C1NC(=O)/C(=C/c2ccc(-c3ccc(F)cc3O)o2)S1 [AS252424] (first compound 2 µM, partner dose 5 µM) | 96.1% | 92.8% | 99% | 74.3% | 95.1% | 83.5% | 94.8% | 64.9% | 82.7% | 
Cc1ccc(Nc2nccc(N(C)c3ccc4c(C)n(C)nc4c3)n2)cc1S(N)(=O)=O [Pazopanib] + C=CCn1c(=O)c2cnc(Nc3ccc(N4CCN(C)CC4)cc3)nc2n1-c1cccc(C(C)(C)O)n1 [MK1775] (first compound 2 µM, partner dose 0.1 µM) | 59.8% | 107% | 84.7% | 60.4% | 73.4% | 73.1% | 67.6% | 80.2% | 75.3% | 73.5%
CC1(C)CCC(c2ccc(Cl)cc2)=C(CN2CCN(c3ccc(C(=O)NS(=O)(=O)c4ccc(N[C@H](CCN5CCOCC5)CSc5ccccc5)c(S(=O)(=O)C(F)(F)F)c4)cc3)CC2)C1 + Nc1ccn([C@@H]2O[C@H](CO)[C@@H](O)C2(F)F)c(=O)n1 [gemcitabine] (first compound 2 µM, partner dose 0.002 µM) | 64% | 73% | 48.5% | 85.7% | 36.8% | 58.4% | 86.6% | 37.2% | 94.5% | 3.5%
CC1(C)CCC(c2ccc(Cl)cc2)=C(CN2CCN(c3ccc(C(=O)NS(=O)(=O)c4ccc(N[C@H](CCN5CCOCC5)CSc5ccccc5)c(S(=O)(=O)C(F)(F)F)c4)cc3)CC2)C1 + Cc1cc([N+](=O)[O-])ccc1NS(=O)(=O)c1cc(Cl)ccc1Cl [FH535] (first compound 2 µM, partner dose 5 µM) | 42.5% | 72.4% | 56.3% | 53.7% | 34.5% | 66% | 62.7% | 27.8% | 57.1% | 
O=C(/C=C/c1cccnc1)NCCCCC1CCN(C(=O)c2ccccc2)CC1 + c1cc(-c2cnn3cc(-c4ccc(OCCN5CCCCC5)cc4)cnc23)ccn1 [Dorsomorphin] (first compound 0.05 µM, partner dose 2 µM) | 109% | 26.3% | 92% | 74.7% | 76.8% | 73.8% | 74.7% | 70% | 86.8% | 
CC1(C)CCC(c2ccc(Cl)cc2)=C(CN2CCN(c3ccc(C(=O)NS(=O)(=O)c4ccc(N[C@H](CCN5CCOCC5)CSc5ccccc5)c(S(=O)(=O)C(F)(F)F)c4)cc3)CC2)C1 + Oc1cc(-c2nc(-c3ccccc3)[nH]c2-c2ccncc2)ccc1Cl [L779450] (first compound 2 µM, partner dose 1 µM) | 33.6% | 8.57% | 60% | 52.1% | 28.6% | 40.7% | 18.4% | 34.7% | 37.4% | 
Cc1ccc(Nc2nccc(N(C)c3ccc4c(C)n(C)nc4c3)n2)cc1S(N)(=O)=O [Pazopanib] + N#Cc1c(O)c2c(-c3ccc(-c4ccccc4O)cc3)csc2[nH]c1=O [A769662] (first compound 2 µM, partner dose 10 µM) | 124% | 116% | 97.2% | 111% | 84.4% | 79.5% | 99.5% | 89.8% | 88.4% | 
O=C(/C=C/c1cccnc1)NCCCCC1CCN(C(=O)c2ccccc2)CC1 + OCc1c[nH]c2ccccc12 [Indole-3-carbinol] (first compound 0.05 µM, partner dose 4 µM) | 96.6% | 12.8% | 109% | 86.1% | 95.2% | 88.3% | 96.1% | 69.9% | 111% | 92.9%
O=C(/C=C/c1cccnc1)NCCCCC1CCN(C(=O)c2ccccc2)CC1 + N#Cc1c(O)c2c(-c3ccc(-c4ccccc4O)cc3)csc2[nH]c1=O [A769662] (first compound 0.05 µM, partner dose 10 µM) | 65.4% | 36.9% | 95.6% | 108% | 107% | 89% | 90.6% | 67.4% | 85.6% | 
O=C(/C=C/c1cccnc1)NCCCCC1CCN(C(=O)c2ccccc2)CC1 + Cc1cc([N+](=O)[O-])ccc1NS(=O)(=O)c1cc(Cl)ccc1Cl [FH535] (first compound 0.05 µM, partner dose 5 µM) | 65.4% | 36.2% | 116% | 79.1% | 73.7% | 91.3% | 88.1% | 75.9% | 88% | 
O=C(/C=C/c1cccnc1)NCCCCC1CCN(C(=O)c2ccccc2)CC1 + COc1ccc(C2=N[C@@H](c3ccc(Cl)cc3)[C@@H](c3ccc(Cl)cc3)N2C(=O)N2CCNC(=O)C2)c(OC(C)C)c1 [Nutlin-3] (first compound 0.05 µM, partner dose 0.5 µM) | 57.7% | 20.4% | 80.6% | 73.1% | 104% | 57.8% | 63.7% | 62.1% | 106% | 106%
Cc1ccc(Nc2nccc(N(C)c3ccc4c(C)n(C)nc4c3)n2)cc1S(N)(=O)=O [Pazopanib] + O=C(Nc1ccccc1)c1cc([N+](=O)[O-])ccc1Cl [GW9662] (first compound 2 µM, partner dose 10 µM) | 63.8% | 95.5% | 90.8% | 88.9% | 65.1% | 57.4% | 80.3% | 89.6% | 86.3% | 
O=C(/C=C/c1cccnc1)NCCCCC1CCN(C(=O)c2ccccc2)CC1 + O=C(Nc1ccccc1)c1cc([N+](=O)[O-])ccc1Cl [GW9662] (first compound 0.05 µM, partner dose 10 µM) | 50.1% | 24.7% | 104% | 83.2% | 83.3% | 68.9% | 78% | 93.7% | 92.9% | 
Cc1ccc(Nc2nccc(N(C)c3ccc4c(C)n(C)nc4c3)n2)cc1S(N)(=O)=O [Pazopanib] + CCN(CC)CCCCNc1ncc2cc(-c3cc(OC)cc(OC)c3)c(NC(=O)NC(C)(C)C)nc2n1 [PD173074] (first compound 2 µM, partner dose 0.5 µM) | 86.7% | 91.3% | 102% | 62.8% | 87.6% | 77% | 111% | 67.7% | 77% | 
CC1(C)CCC(c2ccc(Cl)cc2)=C(CN2CCN(c3ccc(C(=O)NS(=O)(=O)c4ccc(N[C@H](CCN5CCOCC5)CSc5ccccc5)c(S(=O)(=O)C(F)(F)F)c4)cc3)CC2)C1 + O=C1NC(=O)/C(=C/c2ccc(-c3ccc(F)cc3O)o2)S1 [AS252424] (first compound 2 µM, partner dose 5 µM) | 112% | 62.6% | 70% | 78.9% | 26.5% | 73.2% | 61.3% | 60% | 62% | 
CC1(C)CCC(c2ccc(Cl)cc2)=C(CN2CCN(c3ccc(C(=O)NS(=O)(=O)c4ccc(N[C@H](CCN5CCOCC5)CSc5ccccc5)c(S(=O)(=O)C(F)(F)F)c4)cc3)CC2)C1 + COc1ccc(-c2ccc3c(N4CCOCC4)nc(N4C[C@@H](C)O[C@@H](C)C4)nc3n2)cc1CO [KU0063794] (first compound 2 µM, partner dose 0.1 µM) | 53.1% | 65.7% | 55.7% | 47.5% | 30.6% | 65.2% | 56.5% | 64.3% | 75.7% | 
O=C(/C=C/c1cccnc1)NCCCCC1CCN(C(=O)c2ccccc2)CC1 + CO[C@H]1C[C@@H]2CC[C@@H](C)[C@@](O)(O2)C(=O)C(=O)N2CCCC[C@H]2C(=O)O[C@H]([C@H](C)C[C@@H]2CC[C@@H](OCCO)[C@H](OC)C2)CC(=O)[C@H](C)/C=C(\C)[C@@H](O)[C@@H](OC)C(=O)[C@H](C)C[C@H](C)/C=C/C=C/C=C/1C [everolimus] (first compound 0.05 µM, partner dose 0.1 µM) | 46.7% | 29.7% | 72.7% | 63.9% | 98% | 64.6% | 83% | 86.5% | 65% | 68.7%
O=C(/C=C/c1cccnc1)NCCCCC1CCN(C(=O)c2ccccc2)CC1 + Nc1ccn([C@@H]2O[C@H](CO)[C@@H](O)C2(F)F)c(=O)n1 [gemcitabine] (first compound 0.05 µM, partner dose 0.002 µM) | 90.5% | 19.8% | 136% | 102% | 112% | 77.4% | 104% | 71.4% | 123% | 69.2%
Cc1ccc(Nc2nccc(N(C)c3ccc4c(C)n(C)nc4c3)n2)cc1S(N)(=O)=O [Pazopanib] + COc1ccc(-c2ccc3c(N4CCOCC4)nc(N4C[C@@H](C)O[C@@H](C)C4)nc3n2)cc1CO [KU0063794] (first compound 2 µM, partner dose 0.1 µM) | 73.6% | 72.4% | 84.9% | 76% | 85.9% | 99.3% | 87.9% | 80.4% | 79.4% | 
